The values below come from ChEMBL document CHEMBL5606460, “ASAP - DENV-2 NS2B-NS3 protease fluorescence single point” (2024).

For this test, the target named is Genome polyprotein (dengue virus type 2) (UniProt P29990).
Where [1] appears, read: Thailand/16681/1984, Concentration 25.0 uM, Number of replicates 1.0.

In all, about 2,000 compounds went through this assay and about 110 (5.5%) showed an effect of 50% or more. The list shows a part of the results.

Usually inhibition stands for the relative decrease from the control value, in per cent. Take `Cc1cnccc1NC(=O)c1ccnc(C(C)C)n1`: the inhibition is -0.448% (Thailand/16681/1984, Concentration 49.5 uM, Number of replicates 2.0, Standard deviation 0.008671018658116017 %); 1.15% (Thailand/16681/1984, Concentration 99.01 uM, Number of replicates 2.0, Standard deviation 1.3196182588812893 %); 4.29% (Thailand/16681/1984, Concentration 198.0 uM, Number of replicates 2.0, Standard deviation 0.7955645868412119 %).
As for `Cc1cc(CO)c2cccc(CC(=O)Nc3nonc3C(N)=O)c2n1`, the inhibition reads like this: (Thailand/16681/1984, Concentration 49.95 uM, Number of replicates 2.0, Standard deviation 0.10454576349345478 %) 97.1%; (Thailand/16681/1984, Concentration 99.9 uM, Number of replicates 2.0, Standard deviation 0.006921524049853062 %) 99%.
Regarding `Cc1cnccc1NC(=O)CNC(=O)CC(C)C`, the inhibition is -0.087% (Thailand/16681/1984, Concentration 49.5 uM, Number of replicates 2.0, Standard deviation 0.9445281131901762 %); -0.096% (Thailand/16681/1984, Concentration 99.01 uM, Number of replicates 2.0, Standard deviation 0.670433522818339 %); -0.131% (Thailand/16681/1984, Concentration 198.0 uM, Number of replicates 2.0, Standard deviation 1.5079978445957176 %).
As for `Cc1cnccc1NC(=O)c1ccccc1OCc1ccccc1`, the inhibition runs as follows: (Thailand/16681/1984, Concentration 49.5 uM, Number of replicates 2.0, Standard deviation 0.6770638332184061 %) -5.1%; (Thailand/16681/1984, Concentration 99.01 uM, Number of replicates 2.0, Standard deviation 0.8934150705676202 %) -4.82%; (Thailand/16681/1984, Concentration 198.0 uM, Number of replicates 2.0, Standard deviation 1.2952105869034334 %) -4.2%.
On to `C[C@H](NC(=O)C1CCN(c2ccc(C=O)cc2)CC1)c1ccc(Cl)cc1Cl`, for which the inhibition under setting [1] was found to be 4.82%.
As to `Cc1cc(CO)c2cccc(Cc3ccccc3C(=O)N3CCO[C@@H](CN)C3)c2n1`, the inhibition is -6.12% (Thailand/16681/1984, Concentration 49.95 uM, Number of replicates 2.0, Standard deviation 3.8059806233456843 %) and -9.56% (Thailand/16681/1984, Concentration 99.9 uM, Number of replicates 2.0, Standard deviation 0.37872955767016525 %).
As to `Cc1nc2cc(CN3CCC[C@H](c4cc5ccccc5[nH]4)C3)ccc2[nH]1`, the inhibition was -2.12% (Thailand/16681/1984, Concentration 49.5 uM, Number of replicates 2.0, Standard deviation 2.2283132795181855 %); -0.915% (Thailand/16681/1984, Concentration 99.01 uM, Number of replicates 2.0, Standard deviation 2.713518462728271 %); 0.864% (Thailand/16681/1984, Concentration 198.0 uM, Number of replicates 2.0, Standard deviation 3.2458212740095824 %).
On to `Cc1cc(-c2nn(C)cc2NC(=O)c2ccccc2C(F)(F)F)[nH]n1`, for which the inhibition by setting is: (Thailand/16681/1984, Concentration 49.5 uM, Number of replicates 2.0, Standard deviation 1.752059665463329 %) -5.04%; (Thailand/16681/1984, Concentration 99.01 uM, Number of replicates 2.0, Standard deviation 1.607181728168465 %) -4.72%; (Thailand/16681/1984, Concentration 198.0 uM, Number of replicates 2.0, Standard deviation 0.9745469110141209 %) -1.85%.
Regarding `Cc1nc([C@H]2CCCNC2)[nH]c1C(=O)Nc1cc(-c2cccnc2)n[nH]1`, the inhibition (Thailand/16681/1984, Concentration 49.5 uM, Number of replicates 2.0, Standard deviation 2.201855131750138 %) was -3.46%; the inhibition (Thailand/16681/1984, Concentration 99.01 uM, Number of replicates 2.0, Standard deviation 1.858065153444822 %) was -1.45%; the inhibition (Thailand/16681/1984, Concentration 198.0 uM, Number of replicates 2.0, Standard deviation 1.383155203311006 %) was 1%.
Consider `NCc1cccc(NC(=O)[C@H]2CN(C(=O)OCc3ccccc3)CC23CCOCC3)c1`, for which the inhibition was -2.83% (Thailand/16681/1984, Concentration 49.5 uM, Number of replicates 2.0, Standard deviation 3.4820905640560142 %); -1.08% (Thailand/16681/1984, Concentration 99.01 uM, Number of replicates 2.0, Standard deviation 3.010767204046265 %); -0.776% (Thailand/16681/1984, Concentration 198.0 uM, Number of replicates 2.0, Standard deviation 2.6769829613344203 %).
`Nc1nc(CN2CCNCC2)nc2ccccc12`: the inhibition is -6.82% (Thailand/16681/1984, Concentration 49.95 uM, Number of replicates 2.0, Standard deviation 3.1670645770640644 %) and -5.57% (Thailand/16681/1984, Concentration 99.9 uM, Number of replicates 2.0, Standard deviation 4.39111425635431 %).
`CN(C)C1(CNC(=O)C2CCN(c3ccc(C=O)cc3)CC2)CCOCC1`: the inhibition under setting [1] came to 12.1%.
Take `CCCN(C(=O)C1CCN(c2ccc(C=O)cc2)CC1)[C@@H](C)c1ccccc1`: the inhibition under setting [1] was determined as 14.3%.
On to `CSCC(=O)Nc1ccc(Cl)c2cccnc12`, for which the inhibition (Thailand/16681/1984, Concentration 49.95 uM, Number of replicates 2.0, Standard deviation 4.284996583998793 %) was -8.76% and the inhibition (Thailand/16681/1984, Concentration 99.9 uM, Number of replicates 2.0, Standard deviation 5.022059659232943 %) was -8.17%.
Take `O=Cc1ccc(N2CCC(C(=O)Nc3cnn(-c4ccccc4)c(=O)c3Cl)CC2)cc1`: the inhibition under setting [1] came out at 12.9%.
For the compound `CC(=O)N[C@@H](CCCCN)C(=O)Nc1cccc2c(CO)cc(C)nc12`, the inhibition (Thailand/16681/1984, Concentration 49.95 uM, Number of replicates 2.0, Standard deviation 0.7189645441339965 %) was 35.5% and the inhibition (Thailand/16681/1984, Concentration 99.9 uM, Number of replicates 2.0, Standard deviation 0.1513618084697797 %) was determined as 97.4%.
Take `Cc1cnccc1NC(=O)c1cc(C2CCCC2)n(C)c1C`: the inhibition runs as follows: (Thailand/16681/1984, Concentration 49.5 uM, Number of replicates 2.0, Standard deviation 1.895573393565592 %) -3.53%; (Thailand/16681/1984, Concentration 99.01 uM, Number of replicates 2.0, Standard deviation 0.7217418528634704 %) -1.88%; (Thailand/16681/1984, Concentration 198.0 uM, Number of replicates 2.0, Standard deviation 1.3851925911876457 %) 0.718%.
For the compound `CCN(C(=O)c1cc(C)cc2cn[nH]c12)[C@H]1CCN(C(=O)c2nc(N)ccc2C)C1`, the inhibition is -1.8% (Thailand/16681/1984, Concentration 49.5 uM, Number of replicates 2.0, Standard deviation 0.8740799509321564 %); -2.19% (Thailand/16681/1984, Concentration 99.01 uM, Number of replicates 2.0, Standard deviation 0.47840373553163984 %); -4.37% (Thailand/16681/1984, Concentration 198.0 uM, Number of replicates 2.0, Standard deviation 1.664888518800005 %).
In the case of `Cc1cc(CO)c2cccc(NC(=O)c3nc(-c4ccccc4)oc3C(F)(F)F)c2n1`, the inhibition reads like this: (Thailand/16681/1984, Concentration 49.95 uM, Number of replicates 2.0, Standard deviation 3.021297847027803 %) 28.1%; (Thailand/16681/1984, Concentration 99.9 uM, Number of replicates 2.0, Standard deviation 2.6625533133971393 %) 43.6%.
`O=Cc1ccc(N2CCC(C(=O)Nc3ccc4c(c3)OCCO4)CC2)cc1`: the inhibition under setting [1] turned out to be 7.28%.
Take `O=Cc1ccc(N2CCC(C(=O)N[C@@H](c3ccccc3)c3ccc(Br)cc3)CC2)cc1`: the inhibition under setting [1] is -4.37%.
